# Experimental data reported in PubChem BioAssay AID1468 (National Center for Advancing Translational Sciences (NCATS), 2008).
# About 1,100 (0.39%) of roughly 280,000 compounds were called active. The inconclusive results got no clear call from the source; some entries with a clear call stand among them for comparison. The call rests on the fitted dose curve; in most records, active means well fitted inhibition curve with a large enough effect; inconclusive means small, poorly fitted or top-dose-only effect, or effect the other way; inactive means flat fitted curve, though single readings scatter. Potencies of inconclusive entries are left out as doubtful fits.
# Biological target: Microtubule-associated protein tau (Homo sapiens) (UniProt P10636)
# Chain of UniProt P10636 (P10636 whole entry, looked up): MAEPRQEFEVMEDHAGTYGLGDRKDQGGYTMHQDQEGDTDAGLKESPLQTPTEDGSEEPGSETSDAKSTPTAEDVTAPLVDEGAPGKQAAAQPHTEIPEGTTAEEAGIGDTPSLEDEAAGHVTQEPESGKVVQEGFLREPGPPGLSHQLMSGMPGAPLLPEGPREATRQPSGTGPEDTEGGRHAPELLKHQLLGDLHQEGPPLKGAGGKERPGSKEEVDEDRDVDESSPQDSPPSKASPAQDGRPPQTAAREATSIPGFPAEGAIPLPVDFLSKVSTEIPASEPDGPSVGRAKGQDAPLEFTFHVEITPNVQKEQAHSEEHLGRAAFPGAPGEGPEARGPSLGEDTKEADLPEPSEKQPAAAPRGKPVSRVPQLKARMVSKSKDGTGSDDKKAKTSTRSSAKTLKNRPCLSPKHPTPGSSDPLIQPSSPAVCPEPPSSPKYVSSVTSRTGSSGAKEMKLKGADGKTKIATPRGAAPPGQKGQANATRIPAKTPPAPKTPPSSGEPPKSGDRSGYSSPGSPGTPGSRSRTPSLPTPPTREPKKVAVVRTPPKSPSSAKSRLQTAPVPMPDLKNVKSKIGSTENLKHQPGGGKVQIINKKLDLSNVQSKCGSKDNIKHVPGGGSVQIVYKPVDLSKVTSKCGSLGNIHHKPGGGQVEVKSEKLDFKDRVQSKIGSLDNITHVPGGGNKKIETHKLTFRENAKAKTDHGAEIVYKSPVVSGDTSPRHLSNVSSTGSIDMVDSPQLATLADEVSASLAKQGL
# Test: qHTS for Inhibitors of Tau Fibril Formation, Fluorescence Polarization; further: nearly all actives have a fitted effect of over 55% in size
# Conditions: K18 P301L tau heparin fibrillization, Alexa594 FP, 6 h; series mostly up to 57.7 µM
# Method in brief: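 Human K18 P301L fragment (15 uM unlabeled plus 0.24 uM Alexa 594-labeled) in 100 mM sodium acetate pH 7 with compound, aggregation induced by 20 uM heparin for 6 hr at 37 C. ThT (30 uM) added for 1 hr, then Alexa 594 FP read.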
# Potency means the concentration at half of the fitted maximal effect; tags describe the fitted curve by direction and shape.
row,Compound,Potency
1,CC(C)Oc1ccc(CNC(=O)c2ccc(CS(=O)c3cccc(Cl)c3)o2)cc1 (stereo unspecified),inactive
2,Cc1ccc(NC(=O)N2CCc3cc(S(=O)(=O)N4CCC(C)CC4)ccc32)cc1,inactive
3,Cc1ccc(Cl)cc1Nc1nn2c(=O)c3ccc(C(=O)Nc4ccc(F)cc4)cc3nc2s1,"inconclusive [inhibitor, single point]"
4,CCCC(=O)Nc1ccc(-c2csc(N/N=C\c3ccncc3)n2)cc1,"inconclusive [activator, single point]"
5,COc1ccc(CNc2nc(-c3ccccc3)nn2S(=O)(=O)c2ccccc2)cc1,"inconclusive [inhibitor, partial curve]"
6,Cc1ccc(NC(=S)NCCc2c[nH]c3ccccc23)cc1,"inconclusive [activator, partial curve, poor fit]"
7,Cc1ccc(-c2cc(C(=O)N3CCCc4ccccc43)c3ccccc3n2)cc1,"inconclusive [inhibitor, partial curve, poor fit]"
8,FC(F)(F)c1nnc(-c2ccccc2)nc1Sc1ccccc1,"inconclusive [inhibitor, full curve]"
9,COC(=O)c1sccc1-c1ccc(C(=O)Nc2cccc(Cl)c2)o1,"inconclusive [inhibitor, partial curve]"
10,COc1cc(/C=C(\C#N)c2nc3ccccc3[nH]2)ccc1OCc1ccc(F)cc1,"inconclusive [inhibitor, partial curve, poor fit]"
11,CNc1ccc(Br)cc(C(=O)/C=C/c2ccc(OC)cc2OC)c1=O,"inconclusive [inhibitor, partial curve]"
12,O=C(Cc1cccs1)NC1C(=O)N2C(C(=O)[O-])=C(C[n+]3ccccc3)CSC12 (stereo unspecified),"inconclusive [inhibitor, partial curve]"
13,Cn1nc(-c2ccccn2)nc2c(=O)n(C)c(=O)nc1-2,"inconclusive [inhibitor, full curve]"
14,Cc1c(N(C)C(=O)c2ccc3c(c2)OCO3)c(=O)n(-c2ccccc2)n1C,"inconclusive [inhibitor, single point]"
15,FC(F)(F)c1ccc(CN2C[C@@H]3C(c4ccc(C(F)(F)F)cc4)C4(c5ccccc5)CC3(C4)[C@H]2c2ccccc2)cc1 (stereo partly specified),inactive
16,COc1ccc(OC)c(C2CC(=O)N3CN(c4cccc(Cl)c4C)CSC3=C2C#N)c1 (stereo unspecified),active: 31.6 µM
17,COc1ccc(CCN2C(=O)C3C4CC(C5C(C(=O)N/N=C\c6ccc(Cl)cc6)=NOC45)C3C2=O)cc1OC (stereo unspecified),"inconclusive [inhibitor, partial curve, poor fit]"
18,CN(Cc1cnc2nc(N)nc(N)c2n1)c1ccc(C(=O)N[C@@H](CCC(=O)O)C(=O)O)cc1,"inconclusive [inhibitor, partial curve, poor fit]"
19,COc1ccccc1CNc1nc(-c2ccco2)nn1C(=O)c1cc(OC)c(OC)c(OC)c1,"inconclusive [inhibitor, single point]"
20,COc1ccc(NS(=O)(=O)c2ccc(NC(=O)c3cnn4c(C(F)F)cc(-c5ccc(C)cc5)nc34)cc2)cc1,"inconclusive [inhibitor, single point]"
21,CCOC(=O)N1CCN(S(=O)(=O)c2ccc(C(=O)NNc3nc4cc(C)cc(C)c4s3)cc2)CC1,"inconclusive [activator, single point]"
22,N#Cc1c(N)sc(=S)c2c1CCCCC2,"inconclusive [inhibitor, partial curve, poor fit]"

row,Compound,Potency
1,Cc1cccc(NC(=O)CN2CCN(CC(=O)Nc3cccc(C)c3)CC2)c1,inactive
2,Cc1nn2c(NCC(C)C)c3c(nc2c1-c1ccccc1)CCC3,inactive
3,Cc1cc(=O)oc2c(CN3CCCCC3)c(O)c(Cl)cc12,inactive
4,CC(C)(C)C(=O)[C@@H]1[C@@H]2C(=O)N(C3CCCCC3)C(=O)[C@@H]2[C@H]2c3ccccc3C=CN12,"inconclusive [inhibitor, partial curve]"
5,Cc1c(C(=O)N2CCCC2)oc2c1-c1nn(CC(=O)NCc3ccccc3Br)cc1CC2,inactive
6,COc1ccc(CN=C2NC(=O)CC(C(=O)Nc3ccc(F)cc3)S2)cc1 (stereo unspecified),"inconclusive [inhibitor, partial curve]"
7,Cn1c(-c2ccccc2)c(/C=N/NC(=O)c2cccnc2)c2ccccc21,inactive
8,CC1Cn2c(C(=O)NCCc3ccc(Cl)cc3)cc3cccc(c32)S1 (stereo unspecified),"inconclusive [inhibitor, single point]"
9,COc1cc(/C=N/NC(=O)c2ccccc2)ccc1OS(=O)(=O)c1ccccc1,active: 35.5 µM
10,CCOc1ccc2nc3cc(N)ccc3c(N)c2c1,"inconclusive [inhibitor, partial curve]"
11,COc1ccc(-c2cc(C(=O)Oc3ccc(C)cc3)c3cc(C)ccc3n2)cc1,"inconclusive [inhibitor, partial curve]"
12,N#Cc1nc(-c2ccc(OCc3ccccc3)cc2)oc1NCCCn1ccnc1,"inconclusive [activator, partial curve]"
13,O=C(CN1C(=O)COc2ccc(S(=O)(=O)N3CCCCCC3)cc21)Nc1cccc(Cl)c1,"inconclusive [inhibitor, partial curve]"
14,Cc1ccc(S(=O)(=O)/N=C2/NC(=O)/C(=C/c3cccnc3)S2)cc1,"inconclusive [inhibitor, partial curve, poor fit]"
15,CCOc1ccc(C(=O)c2cn(CC(=O)Nc3cccc(OC)c3)c3cc4c(cc3c2=O)OCCO4)cc1,"inconclusive [inhibitor, single point]"
16,Cc1nnc(SCC(=O)N2CCOCC2)[nH]c1=O,"inconclusive [inhibitor, single point]"
17,Nc1ccc(O)c(-c2nc3ccccc3s2)c1,"inconclusive [inhibitor, partial curve, poor fit]"
18,CC1=CC(=Nc2c(C)n(C)n(-c3ccccc3)c2=O)C=C(C)C1=O,"inconclusive [inhibitor, partial curve]"
19,Cc1ccc(NC(=O)CSc2nc3c([nH]c4ccccc43)c(=O)n2-c2ccccc2)cc1Cl,"inconclusive [inhibitor, single point]"
20,CC(=O)C1CCC2C3CC(C)C4=CC(=O)CC[C@@]4(C)C3C(O)C[C@@]12C (stereo partly specified),inactive
21,CC(C)(C)OC(=O)N1CCC[C@H]1c1nnc(SCC(=O)Nc2cccc(Cl)c2)o1,inactive
22,Cn1cnnc1SCC(=O)Nc1ccc2nc(SCc3ccccc3)sc2c1,"inconclusive [inhibitor, partial curve]"

row,Compound,Potency
1,S=C1Cc2ccccc2N1,"inconclusive [inhibitor, full curve]"
2,COc1ccc(-n2nc3ccc(NC(=O)c4c(OC)cccc4OC)cc3n2)cc1,"inconclusive [inhibitor, partial curve]"
3,O=C(Cn1c(=O)n(-c2ccc(F)cc2)c(=O)c2sc3ccccc3c21)NC1CCCC1,"inconclusive [inhibitor, single point]"
4,COc1ccc(N=C2SC(CC(=O)Nc3ccc(F)cc3)C(=O)N2Cc2ccco2)cc1 (stereo unspecified),"inconclusive [inhibitor, partial curve]"
5,COC(=O)C1=COC(C)C2CN3CCc4c([nH]c5ccccc45)C3CC12 (stereo unspecified),inactive
6,O=[n+]1c2c(n([O-])c3cc(F)c(F)cc31)CCCC2,inactive
7,Fc1ccc(Nc2nc(SCc3ccccc3Cl)nc3ccccc23)cc1,active: 6.31 µM
8,Cc1onc(-c2c(Cl)cccc2Cl)c1C(=O)Nn1cnnc1,inactive
9,Cn1c(NCC(O)c2ccccc2)nc2c1c(=O)n(Cc1ccc(Cl)cc1)c(=O)n2C (stereo unspecified),"inconclusive [activator, single point]"
10,Cc1ccc(NC(=O)c2cc(-c3cccc(O)c3)on2)cc1C,"inconclusive [inhibitor, single point]"
11,CC(=O)c1cccc(NC(=O)CSc2nc3c(c(=O)[nH]2)CCC3)c1,"inconclusive [inhibitor, partial curve, poor fit]"
12,CCCCN(CCCC)CCNC(=O)Cn1nc(CC)n2c(cc3sccc32)c1=O,inactive
13,NNC(=O)C1CCCn2c1nc1sc3c(c1c2=O)CCCC3 (stereo unspecified),"inconclusive [inhibitor, single point]"
14,CCC1=Nc2cc(C(=O)NCCc3ccc(OC)c(OC)c3)ccc2Sc2ccccc21,inactive
15,COc1ccccc1-n1nnnc1SCC(=O)Nc1ccccn1,"inconclusive [inhibitor, single point]"
16,Cc1ccc(OCCn2cc(C(=O)c3cccs3)c3ccccc32)cc1,"inconclusive [inhibitor, partial curve]"
17,COc1ccccc1-c1c(C)nn2c(-c3ccccc3)cc(-c3ccccc3)nc12,"inconclusive [inhibitor, partial curve]"
18,Cc1cccc(N2CCN(C(=O)Cn3nc(C)c4sc5ccccc5c4c3=O)CC2)c1C,inactive
19,Fc1ccc(CSc2nnc(-c3ccco3)o2)cc1,inactive
20,Cc1ccccc1NC(=O)c1cc2c(-c3ccccc3)nn(-c3ccccc3)c2s1,"inconclusive [inhibitor, partial curve]"
21,COc1ccccc1N1CCN(C(c2cc3cc(C)ccc3[nH]c2=O)c2nnnn2C2CCCC2)CC1 (stereo unspecified),inactive
22,CC(=O)c1cccc(NC(=O)NCCS(C)=O)c1 (stereo unspecified),"inconclusive [inhibitor, single point]"
